# Source: the supplement of paper PMC8728848
# Some of the results follow.
# B1: PX15618A-bth-503-24-503 (Bacteroides thetaiotaomicron) (protein)
# chain: NKSEDKLSGDDFWAQGNETNAEAFLLSIYNSFRNATMSQRPFLTYSGDMRCAPITAYSTGDKYVAYLANNDMGELRNTYPDDARGGLIMQWDVFYTAIQDANILLAEIDKVPGMDELKRSRFKAEAIFMRSLSYFFIVRAFGDVPYYTNAYNEAPLPRTNMVIVLQNCLADLQPLLDDDPGAEVLPWSYSSYSSKGIRASRGSVIALMMHINLWLVQFDAQNKEQYYRNVVSLGEELERNNGAYSLLDINRSSVIFAGGSDEGLFEIAQNINFNEIFMMNAKFSDNVSYSCLNKSMPLFCYSGDYLMTLFPMYEDDARKELWFDEKIYSTSVSSSAPKEIKKFWNIDTYGNGTITSNSGNQIVFRYAGALLLYAEALAALGTNDTKACELLNRVRNRAHASEINTSGSELMDAIFWERCRELIGEGHYYYDLVRTGKVYNRNYCMNPMTRTNFNVGAWTWPIHRNALKNNTQIGLNLFWE
# Experiments:
# Assay in all cases: glycan array binding signal (z-score within array); higher = stronger binding
# Conditions in all cases: glycan notation: IUPAC condensed, linker removed
# [1] = biological target: Gal(b1-3)GlcNAc(b1-3)Gal(b1-4)GlcNAc(b1-2)[Gal(b1-3)GlcNAc(b1-3)Gal(b1-4)GlcNAc(b1-6)]Man(a1-6)[Gal(b1-3)GlcNAc(b1-3)Gal(b1-4)GlcNAc(b1-2)Man(a1-3)]Man(b1-4)GlcNAc(b1-4)[Fuc(a1-6)]GlcNAc
# In short: (§1)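 Columns mapping to the same glycan were averaged after glycan names were converted to IUPAC-condensed notation. The data come from 3228 arrays in the Consortium for Functional Glycomics database, limited to those with an available protein sequence. Binding is reported as a within-array Z-score averaged across arrays of one protein sequence and across linkers.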
# [2] = biological target: Gal(b1-3)GlcNAc(b1-3)Gal(b1-4)GlcNAc(b1-3)Gal(b1-4)GlcNAc(b1-2)[Gal(b1-3)GlcNAc(b1-3)Gal(b1-4)GlcNAc(b1-3)Gal(b1-4)GlcNAc(b1-6)]Man(a1-6)[Gal(b1-3)GlcNAc(b1-3)Gal(b1-4)GlcNAc(b1-3)Gal(b1-4)GlcNAc(b1-2)Man(a1-3)]Man(b1-4)GlcNAc(b1-4)[Fuc(a1-6)]GlcNAc
# In short: as §1
# [3] = biological target: Gal(b1-3)GlcNAc(b1-3)Gal(b1-4)GlcNAc(b1-6)[Gal(b1-3)GlcNAc(b1-3)]Gal(b1-4)Glc
# In short: as §1
# [4] = biological target: Gal(b1-3)GlcNAc(b1-3)Gal(b1-4)[Fuc(a1-3)]GlcNAc
# In short: as §1
# [5] = biological target: Gal(b1-3)GlcNAc(b1-3)Gal(b1-4)[Fuc(a1-3)]GlcNAc(b1-6)[Gal(b1-3)GlcNAc(b1-3)]Gal(b1-4)Glc
# In short: as §1
# [6] = biological target: Gal(b1-3)GlcNAc(b1-3)GalNAc
# In short: as §1
# [7] = biological target: Gal(b1-3)GlcNAc(b1-6)Gal(b1-4)GlcNAc
# In short: as §1
# [8] = biological target: Gal(b1-3)GlcNAc(b1-6)GalNAc
# In short: as §1
# [9] = biological target: Gal(b1-3)GlcNAc(b1-6)[Gal(b1-3)]GalNAc
# In short: as §1
# Gal(b1-3)GlcNAc6S = biological target: Gal(b1-3)GlcNAc6S
# In short: as §1
# [10] = biological target: Gal(b1-3)[Fuc(a1-4)]GlcNAc
# In short: as §1
# [11] = biological target: Gal(b1-3)[Fuc(a1-4)]GlcNAc(b1-2)Man
# In short: as §1
# [12] = biological target: Gal(b1-3)[Fuc(a1-4)]GlcNAc(b1-2)Man(a1-3)[Gal(b1-3)[Fuc(a1-4)]GlcNAc(b1-2)Man(a1-6)]Man(b1-4)GlcNAc(b1-4)[Fuc(a1-6)]GlcNAc
# In short: as §1
# [13] = biological target: Gal(b1-3)[Fuc(a1-4)]GlcNAc(b1-3)Gal(b1-3)[Fuc(a1-4)]GlcNAc
# In short: as §1
# [14] = biological target: Gal(b1-3)[Fuc(a1-4)]GlcNAc(b1-3)Gal(b1-4)[Fuc(a1-3)]GlcNAc
# In short: as §1
# [15] = biological target: Gal(b1-3)[Fuc(a1-4)]GlcNAc(b1-6)GalNAc
# In short: as §1
# [16] = biological target: Gal(b1-3)[GlcNAc(b1-6)]GalNAc
# In short: as §1
# [17] = biological target: Gal(b1-3)[Neu5Ac(a2-6)]GalNAc
# In short: as §1
# [18] = biological target: Gal(b1-3)[Neu5Ac(a2-6)]GlcNAc(b1-4)Gal(b1-4)Glc
# In short: as §1
# [19] = biological target: Gal(b1-3)[Neu5Ac(b2-6)]GalNAc
# In short: as §1
# Gal(b1-4)Gal = biological target: Gal(b1-4)Gal
# In short: as §1
# [20] = biological target: Gal(b1-4)GalNAc(a1-3)[Fuc(a1-2)]Gal(b1-4)GlcNAc
# In short: as §1
# [21] = biological target: Gal(b1-4)GalNAc(b1-3)[Fuc(a1-2)]Gal(b1-4)GlcNAc
# In short: as §1
# Gal(b1-4)Glc = biological target: Gal(b1-4)Glc
# In short: as §1
# Gal(b1-4)Glc6S = biological target: Gal(b1-4)Glc6S
# In short: as §1
# Gal(b1-4)GlcNAc = biological target: Gal(b1-4)GlcNAc
# In short: as §1
# [22] = biological target: Gal(b1-4)GlcNAc(a1-6)Gal(b1-4)GlcNAc
# In short: as §1
# Gal(b1-4)GlcNAc(b1-2)Man = biological target: Gal(b1-4)GlcNAc(b1-2)Man
# In short: as §1
# [23] = biological target: Gal(b1-4)GlcNAc(b1-2)Man(a1-3)Man(b1-4)GlcNAc(b1-4)GlcNAc
# In short: as §1
# [24] = biological target: Gal(b1-4)GlcNAc(b1-2)Man(a1-3)[Gal(b1-4)GlcNAc(b1-2)Man(a1-6)]Man(b1-4)GlcNAc(b1-4)GlcNAc
# In short: as §1
# [25] = biological target: Gal(b1-4)GlcNAc(b1-2)Man(a1-3)[Gal(b1-4)GlcNAc(b1-2)Man(a1-6)]Man(b1-4)GlcNAc(b1-4)[Fuc(a1-6)]GlcNAc
# In short: as §1
# [26] = biological target: Gal(b1-4)GlcNAc(b1-2)Man(a1-3)[Gal(b1-4)GlcNAc(b1-2)Man(a1-6)][Gal(b1-4)GlcNAc(b1-4)]Man(b1-4)GlcNAc(b1-4)[Fuc(a1-6)]GlcNAc
# In short: as §1
# [27] = biological target: Gal(b1-4)GlcNAc(b1-2)Man(a1-3)[Gal(b1-4)GlcNAc(b1-2)Man(a1-6)][GlcNAc(b1-4)]Man(b1-4)GlcNAc(b1-4)[Fuc(a1-6)]GlcNAc
# In short: as §1
# [28] = biological target: Gal(b1-4)GlcNAc(b1-2)Man(a1-3)[GlcNAc(b1-2)Man(a1-6)]Man(b1-4)GlcNAc(b1-4)GlcNAc
# In short: as §1
# [29] = biological target: Gal(b1-4)GlcNAc(b1-2)Man(a1-3)[GlcNAc(b1-4)][Gal(b1-4)GlcNAc(b1-2)Man(a1-6)]Man(b1-4)GlcNAc(b1-4)GlcNAc
# In short: as §1
# [30] = biological target: Gal(b1-4)GlcNAc(b1-2)Man(a1-3)[Man(a1-6)]Man(b1-4)GlcNAc(b1-4)GlcNAc
# In short: as §1
# [31] = biological target: Gal(b1-4)GlcNAc(b1-2)Man(a1-6)Man(b1-4)GlcNAc(b1-4)GlcNAc
# In short: as §1
# [32] = biological target: Gal(b1-4)GlcNAc(b1-2)Man(a1-6)[GlcNAc(b1-2)Man(a1-3)]Man(b1-4)GlcNAc(b1-4)GlcNAc
# In short: as §1
binder,measurement,setting,value
B1,glycan array binding signal (z-score),[1],0.91
same,glycan array binding signal (z-score),[2],1.4
same,glycan array binding signal (z-score),[3],-0.28
same,glycan array binding signal (z-score),[4],0.442
same,glycan array binding signal (z-score),[5],-0.35
same,glycan array binding signal (z-score),[6],-0.179
same,glycan array binding signal (z-score),[7],-0.356
same,glycan array binding signal (z-score),[8],2.58
same,glycan array binding signal (z-score),[9],-0.512
same,glycan array binding signal (z-score),Gal(b1-3)GlcNAc6S,-0.418
same,glycan array binding signal (z-score),[10],-0.361
same,glycan array binding signal (z-score),[11],-0.521
same,glycan array binding signal (z-score),[12],0.312
same,glycan array binding signal (z-score),[13],0.481
same,glycan array binding signal (z-score),[14],-0.351
same,glycan array binding signal (z-score),[15],0.033
same,glycan array binding signal (z-score),[16],-0.236
same,glycan array binding signal (z-score),[17],-0.385
same,glycan array binding signal (z-score),[18],-0.57
same,glycan array binding signal (z-score),[19],-0.384
same,glycan array binding signal (z-score),Gal(b1-4)Gal,-0.33
same,glycan array binding signal (z-score),[20],-0.834
same,glycan array binding signal (z-score),[21],0.257
same,glycan array binding signal (z-score),Gal(b1-4)Glc,-0.45
same,glycan array binding signal (z-score),Gal(b1-4)Glc6S,1.42
same,glycan array binding signal (z-score),Gal(b1-4)GlcNAc,-0.041
same,glycan array binding signal (z-score),[22],-0.652
same,glycan array binding signal (z-score),Gal(b1-4)GlcNAc(b1-2)Man,-0.307
same,glycan array binding signal (z-score),[23],-0.35
same,glycan array binding signal (z-score),[24],-0.383
same,glycan array binding signal (z-score),[25],0.092
same,glycan array binding signal (z-score),[26],-0.771
same,glycan array binding signal (z-score),[27],-0.556
same,glycan array binding signal (z-score),[28],0.155
same,glycan array binding signal (z-score),[29],0.057
same,glycan array binding signal (z-score),[30],-0.392
same,glycan array binding signal (z-score),[31],-0.283
same,glycan array binding signal (z-score),[32],-0.448
